The EC50 is the concentration giving half of the maximal effect.

For part of its entries the source gives two or more results. This is not the full list of results. The source may hold further records. The values listed for one entry appear to be repeats (runs, samples, wells or individuals); a mean can stand among them. Marks such as (2×) give the number of equal values in this list.

This assay deals with T1, PPAR delta (Homo sapiens, UniProt Q03181).
T1 sequence (Q03181 171-441 limits assumed): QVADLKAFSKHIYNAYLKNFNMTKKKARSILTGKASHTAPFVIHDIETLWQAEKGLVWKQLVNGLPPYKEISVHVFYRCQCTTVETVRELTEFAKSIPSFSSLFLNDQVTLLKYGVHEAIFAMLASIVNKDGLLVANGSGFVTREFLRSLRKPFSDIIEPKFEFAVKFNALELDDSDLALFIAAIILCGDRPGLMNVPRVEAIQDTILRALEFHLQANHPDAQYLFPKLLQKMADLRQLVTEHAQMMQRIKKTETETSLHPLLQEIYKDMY
In words: Transfection assay for PPAR receptors (PPAR-Gal4 / Gal4-Luciferase reporter in HEK293 cells). The assay is classed as cell-based. As to conditions: HEK293 cells co-transfected with PPAR-Gal4 (δ) receptor and Gal4-Luciferase reporter, 24 hours; multiple EC50's = multiple measurements; Table 2. The procedure:
Transfection Assay Method for PPAR Receptors
HEK293 cells were grown in DMEM/F-12 Media supplemented with 10% FBS and glutamine (GIBCOBRL). The cells were co-transfected with DNA for PPAR-Gal4 (PPARα, γ or δ) receptor and Gal4-Luciferase Reporter using the DMRIE-C Reagent. On the following day, the medium was replaced with 5% Charcoal treated FBS growth medium. After six hours, cells were trypsinized and seeded at a density of 50,000 cell/well into 96 well plates and incubated overnight at 37° C. in a 5% CO2 incubator. Cells were then treated with test compounds or vehicle and incubated for 24 hours at 37° C. in a 5% CO2 incubator. Luciferase activity was assayed using the Steady-Glo Luciferase Assay Kit from Promega. […] Steady-Glo Luciferase Assay Kit was purchased from Promega Part# E254B.
(Reporter assays use an easily measured gene product as a stand-in for the process of interest.)
In the case of `CC[C@H](COc1ccc(C(F)(F)F)cc1)CSc1ccc(OCC(=O)O)c(C)c1` [Compound 2, {2-Methyl-4-[2-(4-trifluoromethyl-phenoxymethyl)-butylsulfanyl]-phenoxy}-acetic acid], the half-maximal effective concentration (EC50) is 0.02, 0.33, 0.03, 0.47, 1.5 nM [one cell].

Turning to `CCOC(CCc1ccc(C(F)(F)F)cc1)CSc1ccc(OCC(=O)O)c(C)c1` (centres unmarked) [Compound 38, {4-[2-Ethoxy-4-(4-trifluoromethyl-phenyl)-butylsulfanyl]-2-methyl-phenoxy}-acetic acid], the 50% effective concentration (EC50) is 6.9, 7.7, 19.7, 6.5, 4.6 nM [one cell].

With `C=CCO[C@H](COc1ccc(C(F)(F)F)cc1)CSc1ccc(OCC(=O)O)c(C)c1` [Compound 20, (R)-{4-[2-Allyloxy-3-(4-trifluoromethyl-phenoxy)-propylsulfanyl]-2-methyl-phenoxy}-acetic acid], the EC50 was 3.4 nM, 14.6 nM, 1.4 nM [one cell].

Turning to `COCO[C@H](COc1ccc(C(F)(F)F)cc1)CSc1ccc(OCC(=O)O)c(C)c1` [Compound 22, (R)-{4-[2-Methoxymethoxy-3-(4-trifluoromethyl-phenoxy)-propylsulfanyl]-2-methyl-phenoxy}-acetic acid], the EC50 is 1.3, 2.6, 1.4, 2.1, 4.2, 2.3 nM [one cell].

For `CCCC(COc1ccc(C(F)(F)F)cc1)CSc1ccc(OCC(=O)O)c(C)c1` (centres unmarked) [Compound 5, {2-Methyl-4-[2-(4-trifluoromethyl-phenoxymethyl)-pentylsulfanyl]-phenoxy}-acetic acid], the EC50 was 0.02, 0.08, 0.04, 0.01, 0.36 nM (2×) [one cell].

These data come from US8518997B2, “4-(phenoxyalkyl)thio)-phenoxyacetic acids and analogs” (Janssen Pharmaceutica N.V., priority 2003, dated 2013).
